Reference: PMC6919601, “Identification of Plasmodium dipeptidyl aminopeptidase allosteric inhibitors by high throughput screening” (PLoS ONE, 2019)
The whole screen tested about 110,000 compounds, of which about 230 (0.21%) showed an effect of 50% or more. The list shows a part of the results.

What follows are compounds tested against DPAP1 (Plasmodium falciparum, UniProt Q8IIJ9) (assay: primary screen, percent inhibition; read by cleavage of a fluorogenic dipeptide substrate; higher = more effect of the substance).
DPAP1, sequence (Q8IIJ9 whole entry, looked up): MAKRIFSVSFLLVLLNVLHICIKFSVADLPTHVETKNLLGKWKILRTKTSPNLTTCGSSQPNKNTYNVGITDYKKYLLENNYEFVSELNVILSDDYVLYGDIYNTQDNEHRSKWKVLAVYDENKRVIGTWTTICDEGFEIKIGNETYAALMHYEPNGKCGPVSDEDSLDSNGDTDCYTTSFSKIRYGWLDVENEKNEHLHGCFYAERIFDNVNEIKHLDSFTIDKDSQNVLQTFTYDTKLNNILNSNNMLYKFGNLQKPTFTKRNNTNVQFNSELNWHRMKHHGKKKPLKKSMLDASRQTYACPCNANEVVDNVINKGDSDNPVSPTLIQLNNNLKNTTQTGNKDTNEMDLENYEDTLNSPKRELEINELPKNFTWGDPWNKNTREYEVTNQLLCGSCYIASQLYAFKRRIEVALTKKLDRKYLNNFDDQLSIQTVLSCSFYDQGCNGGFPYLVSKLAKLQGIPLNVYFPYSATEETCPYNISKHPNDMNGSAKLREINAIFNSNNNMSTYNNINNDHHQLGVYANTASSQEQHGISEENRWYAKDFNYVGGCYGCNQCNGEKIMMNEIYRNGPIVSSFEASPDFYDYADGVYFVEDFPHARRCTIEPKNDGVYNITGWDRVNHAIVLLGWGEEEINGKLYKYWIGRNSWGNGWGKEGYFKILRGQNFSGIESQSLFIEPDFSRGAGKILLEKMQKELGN
Design: species or system P. falciparum D10 trophozoite lysates; single well
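Note: 30 min substrate incubation versus DMSO and 10 µM JCP410 controls.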

Row | Structure (SMILES) | % Inhibition @ 10 uM [%]
1 | O=C(CSc1nc2cccnc2[nH]1)N1CCOCC1 | -1.24
2 | CC(=O)c1cccc(NC(=O)c2c(-c3c(Cl)cccc3Cl)noc2C)c1 | 1.57
3 | CCOc1ccc(-c2nc3cc(NC(=O)c4ccc(Br)o4)ccc3o2)cc1 | -2.82
4 | CC(C)C[C@H](NC(=O)OCc1ccc(C(F)(F)F)cc1)C(=O)NCC#N | -6.46
5 | O=C(NCc1ccco1)C(Sc1ccccc1)c1ccccc1 (centres unmarked) | -2.6
6 | COCCNC(=O)c1noc2c1COc1ccc(C)cc1-2 | -3.77
7 | CSc1ccc(CN2CCCCC2CCO)cc1 (centres unmarked) | -2.78
8 | Cc1cc(O)n(CCc2ccccc2)c(=O)c1C#N | 0.487
9 | CCOC(=O)c1c(N)sc2c1CC(C)(C)NC2(C)C | 4.38
10 | CC(C)Cc1ccc(C(C)C(=O)NC(C)c2ccccc2)cc1 (centres unmarked) | 4.93
11 | COc1cccc(-n2nnc3c(=O)n(CC(=O)NCc4ccccc4Cl)cnc32)c1 | -3.94
12 | COc1ccc(OC)c(-c2cc(C(=O)N3CCCCC3C)no2)c1 (centres unmarked) | -5.77
13 | Cc1ccc2c(c1)-c1onc(C(=O)N3CC=C(c4ccccc4)CC3)c1CO2 | -7.52
14 | OCCNc1nc(O)c2c(n1)-c1ccccc1CC21CCCCC1 | -1.99
15 | O=C(Cn1cnc2onc(-c3ccc(F)cc3)c2c1=O)N1CCc2ccccc2C1 | 5.71
16 | O=C(c1ccccc1)c1cccn1CC(=O)N1CCc2ccccc2C1 | -5.89
17 | Cc1ccc2c(CC(=O)Nc3nc4ccc(S(C)(=O)=O)cc4s3)coc2c1C | -2.4
18 | C=CCOc1ccc(C2c3c(n[nH]c3-c3c(C)cc(C)cc3O)C(=O)N2CCO)cc1 (centres unmarked) | 1.67
19 | CN1CCC(N2CC=C(c3ccc(F)cc3)CC2)CC1 | -1.75
20 | COc1ccc(S(=O)(=O)N(CC(=O)NCC2CCCO2)c2cccc(Cl)c2)cc1 (centres unmarked) | 3.49
21 | O=C(C1=C(O)C(=O)N(CCCn2ccnc2)C1c1ccncc1)c1cc2ccccc2o1 (centres unmarked) | -4.33
22 | Fc1ccc(N2CCN(Cc3ccc4c(c3)OCO4)CC2)cc1 | -0.0404

Row | Structure (SMILES) | % Inhibition @ 10 uM [%]
23 | COc1ccc(Cl)cc1C1C2=C(CC(C)(C)CC2=O)N(CC(=O)O)C2=C1C(=O)CC(C)(C)C2 | -2.09
24 | O[C@]12CCCC[C@@H]1[C@@H](c1cccc(F)c1)NCC2 | -1.8
25 | Cc1ccc(C2C(C(=O)c3ccc4c(c3)OCCO4)=C(O)C(=O)N2CCN2CCOCC2)cc1 (centres unmarked) | -3.49
26 | CCOC(=O)N1CCN(C(=O)c2noc3c2COc2ccccc2-3)CC1 | 1.68
27 | Cc1cc(C)nc(NS(=O)(=O)c2ccc(NC(=O)c3ccco3)cc2)n1 | -3.9
28 | CCOC(=O)c1[nH]c2c(c1Cc1ccccc1OC)C(=O)CC(c1cccs1)C2 (centres unmarked) | 3.5
29 | COc1cccc(C2OCCN(Cc3ccccc3)C(=O)c3[nH]c4ccccc4c32)c1 (centres unmarked) | 3.68
30 | Cc1cccc(NC(=O)C2CCCN(c3ncnc4c3nc3n4CCCCC3)C2)n1 (centres unmarked) | -5.3
31 | CC(=O)C(C)n1c(N2CCOCC2)nc2c1c(=O)n(C)c(=O)n2C (centres unmarked) | -3.27
32 | NS(=O)(=O)c1ccc(CCNC(=O)c2cc(-c3ccccc3)nc3ccccc23)cc1 | -5.28
33 | Clc1cccc(N2CCN(Cc3ccoc3)CC2)c1 | -1.86
34 | Cc1ccc(NC(=O)c2sc3nc(-c4ccncc4)ccc3c2N)cc1F | -10.7
35 | COc1cccc(C(=O)N2CCN(Cc3ccc4c(c3)OCO4)CC2)c1 | 7.1
36 | C=CCNC(=O)C(Cc1ccc([N+](=O)[O-])cc1)N1C(=O)c2ccccc2C1=O (centres unmarked) | 0.937
37 | Nc1cc(-c2ccccc2)nn1S(=O)(=O)c1ccccc1 | 2.74
38 | Cn1c(SCc2ccc(F)cc2)nc2ccc(C(=O)NCCCN3CCOCC3)cc21 | -8.99
39 | CCCCC(NC(=O)OCc1ccccc1)C(=O)NC(CCc1ccccc1)C(=O)CO (centres unmarked) | -2.35
40 | CC1CCc2sc(NC(=O)CCC(=O)O)c(C#N)c2C1 (centres unmarked) | 8.26
41 | CCC1(C)Cc2ccccc2-c2nc3n(c(=O)c21)CC(C(=O)O)S3 (centres unmarked) | 3.66
42 | O=c1[nH]c2c(oc3ccccc32)c(=O)n1Cc1ccc(Cl)cc1 | -8.41
43 | CN(CCc1ccccn1)Cc1ccc(N(C)C)cc1 | -9.96
44 | Clc1ccc(-n2ncnc2-c2cccs2)cc1 | -2.48

Row | Structure (SMILES) | % Inhibition @ 10 uM [%]
45 | COc1cc2ccccc2cc1C(=O)Nc1cccc(C)c1C | 2.6
46 | Cc1nc2ccccn2c1-c1csc(Nc2ccc(O)cc2)n1 | -0.0953
47 | CC(C)Nc1nc(OCC(F)(F)F)nc(N(c2ccccc2)c2ccccc2)n1 | -0.744
48 | Cc1ccc(/N=C2/SC(C(=O)O)CC(=O)N2C)cc1C (centres unmarked) | -0.884
49 | CC(=O)Nc1cccc2nsnc12 | 0.989
50 | CC(=O)c1nc2ccccc2[nH]1 | 7.61
51 | Cc1oc(C(C)(C)C)cc1C(=O)N1CCCC1C(=O)O (centres unmarked) | -2.98
52 | Cc1cc(C)c2nc(-c3ccc(N)cc3)oc2c1 | 1.62
53 | CCN(CC)S(=O)(=O)c1ccc(NC(=O)c2ccc(Cl)cc2)cc1 | -0.553
54 | CC1=C(c2ccc(Cl)cc2)S(=O)(=O)N=C1NC(C)CCc1ccccc1 (centres unmarked) | -1.08
55 | CCN(CCO)Cc1csc2cc(C)ccc12 | -6.39
56 | CCCC(=O)NCCc1nc2ccccc2n1CC(=O)c1ccccc1 | 3.49
57 | Cc1cc(NC(=O)c2ccc3c(c2)C(=O)N(C2CCCCC2)C3=O)no1 | 1.31
58 | O=C(CCc1nc(-c2ccccc2F)no1)NCCc1ccccc1Cl | 4.05
59 | O=C(O)c1cccc(N2C(=O)c3ccc(C(=O)O)cc3C2=O)c1 | 1.27
60 | CCc1ccccc1NC(=S)NC(=O)c1ccccc1 | 3.82
61 | Cc1ccccc1-c1nnc2n1C1(CCCC1)Cc1ccccc1-2 | 0.0538
62 | CN(C)c1ccc(/C=C/C(=O)c2cccs2)cc1 | 4.57
63 | O=S(=O)(c1cccc(F)c1)N1CCN(Cc2ccccc2)CC1 | -7.83
64 | O=C(c1ccc(F)cc1F)N1CCN(c2cc(N3CCCCC3)c(F)cc2[N+](=O)[O-])CC1 | 1
65 | Cn1c(=O)c2c(-c3ccc(Cl)cc3)n(C(C)(C)C)cc2n(C)c1=O | -6.85
